Laboratory results from PubChem BioAssay (Tox21).
Values joined by “and” are separate entries in the source; they are usually repeats but may differ in a detail not shown here. Identical values can stand only once. This list was built around the results that the source calls inconclusive (neither active nor inactive); the mix of calls is not that of the screen. For some of these results: Potencies beside an inconclusive call are fits to weak or partial responses and may not hold up. More than one record can exist for a structure, and the calls need not agree. Active and inactive are the calls of the source. Unless noted, calls come from the whole dose curve; as a rule, active = well fitted curve in the direction sought with a large enough effect in the repeat runs; inconclusive = weak or mixed curves; inactive = no such curve, though single readings can be large; an effect the other way counts as inactive or inconclusive.

What was measured:
[1] = qHTS assay to identify small molecule antagonists of the androgen receptor (AR) signaling pathway using the MDA cell line in the presence of 0.5 nM R1881 - cell viability counter screen (AID 1259242); note: nearly all actives have a fitted effect of over 45% in size; note: potency is the fitted concentration of half-maximal effect
Summary of the method: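 Cells seeded at 3,000/well and allowed 5 hr at 37C, 0% CO2 before compound transfer and R1881 (0.5 nM final) addition; 16 hr later, live-cell protease fluorescence indicated cytotoxicity.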

[2] = molecular target: Androgen receptor (Homo sapiens) (UniProt P10275); assay: qHTS assay to identify small molecule antagonists of the androgen receptor (AR) signaling pathway using the MDA cell line in the presence of 0.5 nM R1881 (AID 1259243); note: potency is the fitted concentration of half-maximal effect; nearly all actives have a fitted effect of over 50% in size
Summary of the method: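 Luminescence from an AR/GR-responsive MMTV-luciferase construct in MDA-kb2 breast carcinoma cells, read 30 min after ONE-Glo, following 16 hr co-treatment with compounds and 0.5 nM R1881.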

[3] = qHTS assay to identify small molecule HDAC inhibitors - cell viability counter screen (AID 1259365); note: potency is the fitted concentration of half-maximal effect; nearly all actives have a fitted effect of over 50% in size
Summary of the method: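 Wild-type HCT-116 cells were seeded at 1,500 per well, incubated overnight at 37 C, then exposed to compounds in DMSO for 2hr. Viability was read by CellTiter-Glo luminescence after 30min at room temperature.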

[4] = qHTS assay to identify small molecule agonists of the sonic hedgehog signaling (Shh) pathway - cell viability counter screen (AID 1259366); note: potency is the fitted concentration of half-maximal effect; nearly all actives have a fitted effect of over 50% in size
Summary of the method: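 NIH/3T3-derived 3T3 Gli1-Luc cells (stable Gli1-responsive firefly luciferase reporter) were seeded, rested 4 hr at 37 C/5% CO2, then exposed to compounds in DMSO for 24 hr; viability was read by CellTiter-Fluor fluorescence in the same wells.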

[5] = qHTS assay to identify small molecule antagonists of the sonic hedgehog signaling (Shh) pathway - cell viability counter screen (AID 1259367); note: potency is the fitted concentration of half-maximal effect; nearly all actives have a fitted effect of over 55% in size
Summary of the method: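 Viability was read by CellTiter-Fluor fluorescence in the same wells, reagent added 23 hr into compound treatment and incubated 1 hr at 37C. The 3T3 Gli1-Luc reporter cells (2,000/well) received conditioned medium after compound and ran 24 hr.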

[6] = qHTS assay to identify small molecule antagonists of the sonic hedgehog signaling (Shh) pathway (AID 1259369; calls by dose curve; note: potency is the fitted concentration of half-maximal effect; nearly all actives have a fitted effect of over 45% in size)
Summary of the method: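 Read-out is luminescence from a firefly luciferase gene controlled by the Gli1 response element, in 3T3Gli1-Luc cells pre-incubated 4hr then exposed to compounds and conditioned medium for 24hr.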

[7] = qHTS assay to identify small molecule agonists of the androgen receptor (AR) signaling pathway in the presence of an antagonist - cell viability counter screen (AID 1259379); note: potency is the fitted concentration of half-maximal effect; nearly all actives have a fitted effect of over 25% in size
Summary of the method: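 Each compound was tested at 15 concentrations on MDA-kb2 cells in the presence of 3.0uM nilutamide. Viability was measured by CellTiter-Fluor fluorescence after a 16 hr incubation at 37C in a CO2-free atmosphere.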

[8] = qHTS assay to identify small molecule antagonists of the estrogen receptor beta (ER-beta) signaling pathway - cell viability counter screen (AID 1259382); note: nearly all actives have a fitted effect of over 55% in size; note: potency is the fitted concentration of half-maximal effect
Summary of the method: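 CellTiter-Glo ATP luminescence measured after the LiveBLAzer read in the same wells; ER-beta-UAS-bla HEK293T cells, 16 hr compound treatment with 1nM 17-beta-estradiol agonist at 37C, 5% CO2.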

[9] = qHTS assay to identify small molecule agonists or antagonists of the thyroid stimulating hormone receptor (TSHR) signaling pathway - wild type cell line counter screen (AID 1259384; calls by dose curve; note: potency is the fitted concentration of half-maximal effect; for cAMP activity change: % is set by controls: 0 for no effect and ±100 for the full control effect); conditions: HEK293 wild type, cAMP HTRF counter-screen; cAMP activity change: at 92.4 µM (top of the series), stronger effect = higher value unless noted
Summary of the method: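 Counter screen in untransfected Hek293: compounds (15-point titration, triplicate) plus phosphodiesterase inhibitor Ro20-1724 added after 18 h plating; 30 min RT. Intracellular cAMP via competitive d2/cryptate immunoassay, 1 h incubation.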

[10] = molecular target: Thyrotropin receptor (Homo sapiens) (UniProt P16473); assay: qHTS assay to identify small molecule antagonists of the thyroid stimulating hormone receptor (TSHR) signaling pathway (AID 1259385; calls by dose curve; note: potency is the fitted concentration of half-maximal effect; nearly all actives have a fitted effect of over 20% in size); conditions: TSHR-HEK293 cAMP HTRF, TSH-stimulated antagonist mode; activity change, negative = inhibition: at 92.4 µM (top of the series) unless noted
Summary of the method: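 Antagonist mode: compound-treated TSHR-expressing HEK293 cells were stimulated with 1.5 ng/mL TSH (final) in presence of Ro20-1724 for 30 min at RT. HTRF cAMP detection after 1 h; each compound tested at 15 concentrations, triplicate.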

[11] = qHTS assay to identify small molecule agonists of the estrogen receptor alpha (ER-alpha) signaling pathway in the presence of an antagonist - cell viability counter screen (AID 1259386);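 note: potency is the fitted concentration of half-maximal effect; cells exposed to compounds for 22 h at 37 °C before the viability read; nearly all actives have a fitted effect of over 30% in size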
Summary of the method: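 Using estrogen-depleted VM7Luc4E2 cells, the 15-concentration compound series was applied together with 10.0nM ICI-182,780 and incubated 22hr at 37C/5% CO2. Cell viability was then scored by CellTiter-Fluor.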

[12] = molecular target: Estrogen receptor beta (Homo sapiens) (UniProt Q92731); assay: qHTS assay to identify small molecule antagonists of the estrogen receptor beta (ER-beta) signaling pathway (AID 1259378; active = well fitted inhibition curve with a large enough effect in the signal ratio in the repeat runs, not every such curve was filed as active; inconclusive = weak or mixed curves, or effect the other way; inactive = no such curve, though single readings can be large or run the other way; the % refers to the signal ratio; note: potency is the fitted concentration of half-maximal effect; for activity, negative = inhibition: % is set by controls: 0 for no effect and ±100 for the full control effect); conditions: ER-beta-UAS-bla HEK293T, beta-lactamase FRET ratio, 16 h; for Potency: activity, negative = inhibition: at 92.4 µM (top of the series) unless noted
Summary of the method: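 Antagonist mode: compounds added to beta-lactamase reporter HEK293T ER-beta-UAS cells stimulated with E2 (1nM final), 16 hr at 37C. LiveBLAzer B/G FRET substrate, 2 hours room temperature, fluorescence read-out.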

[13] = molecular target: Estrogen receptor (Homo sapiens) (UniProt P03372); assay: qHTS assay to identify small molecule antagonists of the estrogen receptor alpha (ER-alpha) signaling pathway using the BG1 cell line in the presence of 0.1 nM 17-beta-estradiol (AID 1259244); note: potency is the fitted concentration of half-maximal effect; nearly all actives have a fitted effect of over 50% in size
Summary of the method: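 Luciferase signal from VM7Luc4E2 ERE-reporter cells, co-dosed with test compound and 0.1 nM final 17beta-estradiol for 22 h, read with ONE-Glo.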

[14] = qHTS assay to identify small molecule HDAC inhibitors (AID 1259364);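 note: wild-type HCT-116 cells with endogenous class I/II HDAC activity; potency is the fitted concentration of half-maximal effect; nearly all actives have a fitted effect of over 45% in size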
Summary of the method: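 HCT-116 wt cells, 1,500/well, overnight attach. Compounds (DMSO) 2 h, 37 °C. HDAC-Glo I/II, 30 min RT. Luminescence.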

[15] = molecular target: Estrogen receptor beta (Homo sapiens) (UniProt Q92731); assay: qHTS assay to identify small molecule agonists of the estrogen receptor beta (ER-beta) signaling pathway (AID 1259377; active = well fitted activation curve with a large enough effect in the signal ratio in the repeat runs, not every such curve was filed as active; inconclusive = weak or mixed curves, or effect the other way; the % refers to the signal ratio; note: % is set by controls: 0 for no effect and ±100 for the full control effect); conditions: ER-beta-UAS-bla HEK293T, beta-lactamase FRET ratio, 16 h; activation: at 92.4 µM (top of the series) unless noted
Summary of the method: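 ER-beta-UAS-bla HEK293T (GripTite) cells carrying a UAS-driven beta-lactamase reporter, in medium with 2% charcoal-stripped FBS, were exposed to compounds for 16 hr at 37C; LiveBLAzer B/G FRET substrate was then added and fluorescence read after 2 hours at room temperature.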

[16] = qHTS assay to identify small molecule agonists of the estrogen receptor beta (ER-beta) signaling pathway - cell viability counter screen (AID 1259380); note: potency is the fitted concentration of half-maximal effect; nearly all actives have a fitted effect of over 30% in size
Summary of the method: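 Compounds dissolved in DMSO were pin-transferred onto ER-beta-UAS-bla HEK293T cells that had settled 6 hr, and exposure ran 16 hr at 37C. Following the reporter read, CellTiter-Glo luminescence after 30 min at room temperature indicated cytotoxicity.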

[17] = qHTS assay to identify small molecule phospholipidosis (PLD) inducers (AID 1259344; active = well fitted curve in the direction sought with a large enough effect; inconclusive = small, poorly fitted or top-dose-only effect, or another doubt; inactive = no such curve, though single readings can be large; an effect the other way counts as inactive or inconclusive; note: potency is the fitted concentration of half-maximal effect)
Summary of the method: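 Phospholipid accumulation was scored by imaging: fixed, Hoechst-counterstained HepG2 cells stained with LipidTOX Red after 24 h compound exposure at 37 C. Read-outs were pit count and pit intensity per well or per cell, with amiodarone and DMSO controls.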
Tags give direction and shape of the fitted curve or compound fluorescence and quenching.

UniProt Q92731, sequence (Q92731 whole entry, looked up): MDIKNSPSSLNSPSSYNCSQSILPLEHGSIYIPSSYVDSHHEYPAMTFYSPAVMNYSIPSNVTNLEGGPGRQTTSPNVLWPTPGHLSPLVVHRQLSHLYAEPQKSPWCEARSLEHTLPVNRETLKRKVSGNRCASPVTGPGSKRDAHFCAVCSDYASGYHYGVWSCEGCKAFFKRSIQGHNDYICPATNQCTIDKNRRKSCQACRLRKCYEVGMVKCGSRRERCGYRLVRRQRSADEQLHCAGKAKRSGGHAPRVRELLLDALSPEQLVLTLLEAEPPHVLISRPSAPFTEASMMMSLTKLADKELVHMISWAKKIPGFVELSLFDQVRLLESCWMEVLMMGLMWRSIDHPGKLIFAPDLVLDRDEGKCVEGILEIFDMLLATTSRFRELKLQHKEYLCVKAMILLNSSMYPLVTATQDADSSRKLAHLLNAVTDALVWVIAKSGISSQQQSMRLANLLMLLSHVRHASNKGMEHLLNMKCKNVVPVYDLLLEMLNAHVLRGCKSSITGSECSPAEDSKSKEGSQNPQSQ
UniProt P03372, sequence (P03372 whole entry, looked up): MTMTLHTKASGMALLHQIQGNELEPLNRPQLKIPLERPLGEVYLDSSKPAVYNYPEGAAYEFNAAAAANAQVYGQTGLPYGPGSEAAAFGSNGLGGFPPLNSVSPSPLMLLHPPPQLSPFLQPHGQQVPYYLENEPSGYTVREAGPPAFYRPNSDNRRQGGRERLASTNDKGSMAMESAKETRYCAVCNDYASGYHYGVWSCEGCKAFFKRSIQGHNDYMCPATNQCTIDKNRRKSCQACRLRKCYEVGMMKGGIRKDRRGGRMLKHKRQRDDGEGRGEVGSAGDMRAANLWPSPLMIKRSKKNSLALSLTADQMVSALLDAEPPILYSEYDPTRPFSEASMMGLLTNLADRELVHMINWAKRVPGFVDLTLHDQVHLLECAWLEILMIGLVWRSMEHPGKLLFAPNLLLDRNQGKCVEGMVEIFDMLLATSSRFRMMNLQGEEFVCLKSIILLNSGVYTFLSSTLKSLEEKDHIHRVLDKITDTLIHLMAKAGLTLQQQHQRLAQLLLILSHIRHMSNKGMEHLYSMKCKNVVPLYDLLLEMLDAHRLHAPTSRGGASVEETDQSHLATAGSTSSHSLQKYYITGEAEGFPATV
UniProt P10275, sequence (P10275 whole entry, looked up): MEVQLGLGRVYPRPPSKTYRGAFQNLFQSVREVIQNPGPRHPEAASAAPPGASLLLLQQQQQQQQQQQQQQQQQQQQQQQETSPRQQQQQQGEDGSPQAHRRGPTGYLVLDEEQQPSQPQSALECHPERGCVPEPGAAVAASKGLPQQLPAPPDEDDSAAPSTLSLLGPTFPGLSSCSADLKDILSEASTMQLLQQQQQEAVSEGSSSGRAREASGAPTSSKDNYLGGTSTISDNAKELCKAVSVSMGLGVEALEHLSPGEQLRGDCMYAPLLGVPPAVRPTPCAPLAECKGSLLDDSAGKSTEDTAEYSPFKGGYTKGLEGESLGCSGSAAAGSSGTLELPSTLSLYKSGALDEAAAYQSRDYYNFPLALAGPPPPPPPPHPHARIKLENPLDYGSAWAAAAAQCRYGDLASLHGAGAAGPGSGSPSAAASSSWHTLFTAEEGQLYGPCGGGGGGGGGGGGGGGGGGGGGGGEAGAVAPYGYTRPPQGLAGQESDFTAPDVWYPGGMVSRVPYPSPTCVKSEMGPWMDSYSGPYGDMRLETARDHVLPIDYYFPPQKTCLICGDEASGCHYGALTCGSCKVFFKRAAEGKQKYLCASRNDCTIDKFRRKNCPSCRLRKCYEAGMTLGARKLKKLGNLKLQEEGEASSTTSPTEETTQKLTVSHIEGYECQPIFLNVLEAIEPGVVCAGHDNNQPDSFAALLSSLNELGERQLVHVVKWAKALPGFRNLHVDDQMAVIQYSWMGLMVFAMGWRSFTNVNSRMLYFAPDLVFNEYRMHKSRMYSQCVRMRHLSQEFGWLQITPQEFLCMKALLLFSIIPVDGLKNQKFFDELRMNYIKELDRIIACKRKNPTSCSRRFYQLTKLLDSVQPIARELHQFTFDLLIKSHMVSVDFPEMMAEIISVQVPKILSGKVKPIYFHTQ
UniProt P16473, sequence (P16473 whole entry, looked up): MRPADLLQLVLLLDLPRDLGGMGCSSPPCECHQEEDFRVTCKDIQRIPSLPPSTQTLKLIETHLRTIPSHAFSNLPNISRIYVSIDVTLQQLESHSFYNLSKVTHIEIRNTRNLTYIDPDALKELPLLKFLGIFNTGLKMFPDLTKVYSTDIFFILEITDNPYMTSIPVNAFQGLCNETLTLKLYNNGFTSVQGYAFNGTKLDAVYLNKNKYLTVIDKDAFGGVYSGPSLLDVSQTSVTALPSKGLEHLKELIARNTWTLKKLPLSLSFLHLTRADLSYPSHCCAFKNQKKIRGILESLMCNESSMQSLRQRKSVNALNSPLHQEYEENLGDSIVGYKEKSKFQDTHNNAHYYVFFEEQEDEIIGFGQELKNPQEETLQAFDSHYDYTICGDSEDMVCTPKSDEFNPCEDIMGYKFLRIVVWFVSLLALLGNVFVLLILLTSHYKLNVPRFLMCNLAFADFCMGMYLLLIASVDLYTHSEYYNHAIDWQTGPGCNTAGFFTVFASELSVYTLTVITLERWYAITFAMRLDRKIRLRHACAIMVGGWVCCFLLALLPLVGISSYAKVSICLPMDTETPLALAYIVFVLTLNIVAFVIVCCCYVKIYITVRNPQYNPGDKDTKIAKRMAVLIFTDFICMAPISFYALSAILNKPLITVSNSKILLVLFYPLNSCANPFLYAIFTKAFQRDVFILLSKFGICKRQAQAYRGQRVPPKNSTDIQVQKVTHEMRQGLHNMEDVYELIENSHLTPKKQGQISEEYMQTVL

CC(C)(C)CC(C)(C)c1ccc(O)c(Cc2ccc(Cl)cc2Cl)c1
Potency [1]: inconclusive: 33.5 µM [cytotoxic, single point]
Potency [2]: active: 29.8 µM
Potency [3]: inconclusive: 26.6 µM [cytotoxic, partial curve]
Potency [4]: inconclusive: 33.5 µM [cytotoxic, single point]
Potency [5]: inconclusive: 33.5 µM [cytotoxic, single point]
Potency [6]: inconclusive: 33.5 µM [inhibitor, single point]
Potency [7]: inconclusive: 33.5 µM [cytotoxic, single point]
Potency [8]: active: 29.8 µM
Potency [9]: inactive

Nc1cc([N+](=O)[O-])ccc1O
Potency [1]: inconclusive: 48.6 µM [cytotoxic, partial curve] and inconclusive: 54.2 µM [cytotoxic, partial curve]
Potency [2]: inconclusive: 2.42 µM [inhibitor, single point]
Potency [4]: active: 48.6 µM and inconclusive: 27.2 µM [cytotoxic, partial curve]
Potency [5]: inconclusive: 30.6 µM [cytotoxic, partial curve]
Potency [6]: inconclusive: 27.2 µM [inhibitor, full curve]
Potency [8]: inactive
Potency [9]: inconclusive: 61.1 µM [falling, partial curve]
Potency [10]: inconclusive: 54.5 µM [falling, partial curve] and inconclusive: 60.8 µM [falling, partial curve]
Potency [11]: active: 43.3 µM and active: 27.2 µM

CC(C)OC(=O)C(C)(C)Oc1ccc(C(=O)c2ccc(Cl)cc2)cc1
Potency [1]: inconclusive: 68.6 µM [cytotoxic, single point]
Potency [2]: active: 43.3 µM and active: 29.8 µM
Potency [5]: inconclusive: 68.6 µM [cytotoxic, single point]
activity, negative = inhibition ([12]; at 42.5 µM (top of the series)): inconclusive: -39.7%
activity, negative = inhibition ([12]; at 92.4 µM (top of the series)): inconclusive: -54.9%

Nc1cc(Cl)c([N+](=O)[O-])cc1O
Potency [1]: inconclusive: 54 µM [cytotoxic]
Potency [13]: inconclusive: 540 nM [inhibitor, single point]
Potency [4]: inconclusive: 27.1 µM [cytotoxic, partial curve]
Potency [5]: inconclusive: 30.4 µM [cytotoxic, partial curve]
Potency [6]: inconclusive: 60.6 µM [inhibitor, partial curve, poor fit]

O=C(Oc1cccc2cccnc12)c1ccccc1
Potency [1]: inconclusive: 21.1 µM [cytotoxic, partial curve]
Potency [13]: inconclusive: 10600 nM [inhibitor, full curve, poor fit]
Potency [14]: inconclusive: 23.7 µM [inhibitor, partial curve]
Potency [5]: inconclusive: 3.35 µM [cytotoxic, full curve, poor fit]
Potency [15]: inactive
Potency [12]: inconclusive: 26.6 µM [inhibitor, partial curve, poor fit]
Potency [16]: active: 10.6 µM
Potency [8]: inconclusive: 11.9 µM [cytotoxic, full curve]

C=CC(=O)OCCOCCOCCOCCOC(=O)C=C
Potency [1]: inconclusive: 54.8 µM [cytotoxic, partial curve] and inconclusive: 60.6 µM [cytotoxic, partial curve, poor fit]
Potency [13]: active: 54.8 µM and inconclusive: 68 µM [inhibitor, single point]
Potency [3]: inconclusive: 48.1 µM [rising, partial curve]
Potency [16]: inconclusive: 27.4 µM [cytotoxic, single point] and inconclusive: 24.1 µM [cytotoxic, partial curve]
Potency [8]: inconclusive: 27.4 µM [cytotoxic, single point]

Cc1ccc(-c2cc(C(F)(F)F)nn2-c2ccc(S(N)(=O)=O)cc2)cc1
Potency [1]: inconclusive: 68.3 µM [cytotoxic]
Potency [2]: active: 54.3 µM and active: 68.6 µM and inconclusive: 33.5 µM [inhibitor]
Potency [13]: inconclusive: 60.9 µM [inhibitor, single point] and inconclusive: 61.1 µM [inhibitor, partial curve]
Potency [3]: inconclusive: 60.9 µM [cytotoxic, partial curve] and inconclusive: 54.5 µM [cytotoxic, partial curve]
Potency [4]: active: 60.9 µM and active: 61.1 µM
Potency [7]: inconclusive: 76.6 µM [cytotoxic]
Potency [8]: active: 61.1 µM
Potency [11]: inconclusive: 24.3 µM [rising, partial curve]

CSCCC=O
Potency [1]: inactive

CCOC(=O)N1CCC(=C2c3ccc(Cl)cc3CCc3cccnc32)CC1
Potency [1]: inconclusive: 68.6 µM [cytotoxic, single point]
Potency [13]: active: 61.1 µM and inconclusive: 26.6 µM [inhibitor]
Potency [17]: inconclusive: 11.2 µM [activator, single point]
Potency [4]: inconclusive: 29.8 µM [cytotoxic]
Potency [5]: inconclusive: 29.8 µM [cytotoxic, partial curve, poor fit]
Potency [12]: active: 15.4 µM and inconclusive: 11.9 µM [inhibitor]
Potency [7]: inconclusive: 54.5 µM [cytotoxic, partial curve] and inconclusive: 33.5 µM [cytotoxic, single point]
Potency [8]: inconclusive: 21.1 µM [cytotoxic, partial curve]
